The BET-seq Pho4 binding data (Le et al. 2018)
The list shows a part of the results. These are noisy estimates, calculated here from bound and input reads.

Target: T1, Pho4 (S. cerevisiae) (UniProt P07270)
T1 sequence: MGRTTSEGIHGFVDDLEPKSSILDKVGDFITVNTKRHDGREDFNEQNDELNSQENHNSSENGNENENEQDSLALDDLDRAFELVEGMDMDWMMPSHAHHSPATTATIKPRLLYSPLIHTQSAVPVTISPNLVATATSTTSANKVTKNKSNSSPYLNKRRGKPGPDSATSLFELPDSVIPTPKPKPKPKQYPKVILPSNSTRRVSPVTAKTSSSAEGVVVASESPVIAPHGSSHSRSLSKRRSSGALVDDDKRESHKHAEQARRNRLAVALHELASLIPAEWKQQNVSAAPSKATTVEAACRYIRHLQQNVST
Experiment: relative binding free energy (BET-seq); higher = weaker binding
Details: reference: library average

Sequence | relative binding free energy [kcal/mol]
GTAGTCACGTGAGTAA | 0.23
TCTGGCACGTGCGAGG | -0.08
TGTAGCACGTGATTGC | -0.03
ATGGGCACGTGGAGTC | -0.04
TGGTCCACGTGTGATT | -0.07
GTGGGCACGTGCGATT | -0.02
GCTAACACGTGGTAGG | 0.04
GTTTGCACGTGGCCTT | -0.12
TTGTTCACGTGTAGAG | 0.24
GGATGCACGTGCGCGT | -0.04
AGGGACACGTGAGAGT | 0.23
GAGGGCACGTGAGGCT | 0.24
GTGAGCACGTGGGGGT | -0.27
ATTGTCACGTGAGGAA | 0.33
ATTAGCACGTGGTGGG | -0.17
TCGTACACGTGAATGT | 0.33
GAGGGCACGTGAGACA | 0.21
TTGTCCACGTGTATTA | -0.02
ATTATCACGTGGGTGT | -0.05
TGTCACACGTGGGTAG | 0.01
AAGATCACGTGTAATG | 0.21
GTGTGCACGTGTGTAA | 0
ACAAGCACGTGTTGGG | -0.04

Sequence | relative binding free energy [kcal/mol]
CGTCACACGTGTGGGG | 0.09
ATTGACACGTGGGGAG | -0.12
GTTTTCACGTGCGGTA | 0.2
CATCGCACGTGGGGTA | -0.15
TTGTTCACGTGGCGTC | 0.14
CGTTTCACGTGCGTCG | 0.26
AGGTTCACGTGTGCAT | 0.23
TTGTTCACGTGTCTTT | 0.29
ATTTTCACGTGTTCCT | 0.22
TCTTTCACGTGAGTGA | 0.33
AGAGGCACGTGGTTAA | -0.23
CGGTTCACGTGGGCAT | 0.09
TAGGGCACGTGCTGTT | -0.1
AAAATCACGTGTGCGT | 0.21
CAAGGCACGTGGTGGC | -0.11
TTGGTCACGTGGTAGC | 0.03
ATTGCCACGTGTGAGG | -0.06
TAAGTCACGTGGCGCG | 0.07
ATTATCACGTGCGGAT | 0.36
GACGGCACGTGTGGTA | -0.12
AGTATCACGTGAATAT | 0.28
TTTTGCACGTGTAGCT | 0
TGTTGCACGTGGGATG | 0

Sequence | relative binding free energy [kcal/mol]
TGATGCACGTGTCTGT | 0.05
TGATGCACGTGTCGGT | 0.09
TTAGGCACGTGCTTGG | -0.06
GCCCGCACGTGGGGGG | -0.18
AAAGACACGTGGTGGA | -0.1
TATATCACGTGAAGGA | 0.26
AGAGTCACGTGGCTGT | 0
AATAGCACGTGGGGTA | -0.31
GGAGTCACGTGGGGAA | 0.14
GATTTCACGTGTTCTG | 0.37
TAGGCCACGTGTGTTA | -0.1
AGCTACACGTGGCGTG | 0.07
TAGTCCACGTGTTTGG | 0
GCAGTCACGTGGCGGT | -0.03
GCGGTCACGTGGGTCA | 0.13
AGAGGCACGTGATGTG | -0.02
GAGGTCACGTGTAGGC | 0.21
ATGAGCACGTGATTAA | 0.07
GTAATCACGTGAGGGA | 0.32
CGTGTCACGTGGTTCT | 0.08
CATTTCACGTGGATTG | 0.24
AGGTTCACGTGCGAGG | 0.24
TGGTTCACGTGCTTAG | 0.24

Sequence | relative binding free energy [kcal/mol]
GGAGTCACGTGATTGA | 0.22
TGAGGCACGTGTTGGT | -0.03
GAGTACACGTGGGCGG | 0.03
GAGGCCACGTGGGTGT | -0.13
GAGGGCACGTGGTGGT | -0.08
CTTTCCACGTGGGTTT | 0.08
ACGGGCACGTGATAGT | 0.04
AAGGACACGTGGGTCG | -0.12
AGTTTCACGTGGAGGG | 0.3
TACTTCACGTGGGCGT | 0.14
TAGGGCACGTGAAAAT | 0.11
TGAGTCACGTGCGTCG | 0.02
CTTGACACGTGGTTTG | 0.02
TTTTGCACGTGGGCGC | -0.01
TTTGACACGTGGGGCT | -0.16
CGTTGCACGTGTTTGG | -0.05
GTGATCACGTGGCGGT | 0.11
ACTGTCACGTGTTCTG | 0.1
AAGGGCACGTGCTGTG | -0.21
AAGTACACGTGGGAAG | -0.05
AAGAGCACGTGTAGGG | -0.08
GAGCGCACGTGTGTAG | -0.06
AGGCGCACGTGGAGAA | 0.06

Sequence | relative binding free energy [kcal/mol]
TGATTCACGTGTATAA | 0.08
TATGGCACGTGGTAAT | -0.07
TGTATCACGTGGGCAA | -0.07
GAGCGCACGTGTTGTT | -0.1
CGGTGCACGTGGATTT | 0.06
GGGGGCACGTGGTAGT | -0.06
AACTACACGTGGGTTT | -0.01
ATTAACACGTGAGGTT | 0.3
AAGGACACGTGTTTTG | -0.03
GTGGGCACGTGTTAAC | 0.04
GGTTACACGTGCGGAG | 0.21
TATGGCACGTGTAGGA | -0.09
TATTGCACGTGTCTGA | 0.11
CGTTACACGTGTTATG | 0.15
TGCTGCACGTGTTGAG | 0.05
TTTAGCACGTGATTTT | 0.1
TCTCGCACGTGGGTAG | -0.14
ATGACCACGTGGTGTG | -0.25
AAATTCACGTGGGGGA | 0.06
GGGGACACGTGTCGGA | 0.12
CGACACACGTGGGGGG | -0.24
TTGGACACGTGAGTTT | 0.15
GTTGGCACGTGCTATT | -0.09
